Laboratory results taken from US20250304706A1 (Astellas, published 2025).

B1: BTE-0022 (bispecific antibody)
chain 1: QVQLVESGGGVVQPGGSLRLSCAASGFTFSSYGMHWVRQAPGKGLEWVAVIWYDGRNKYYADSVKGRFTISRDNSKNTLYLQMNSLRAEDTAVYYCTRDHSGSGSYYIDYWGQGTLVTVSSASTKGPSVFPLAPSSKSTSGGTAALGCLVKDYFPEPVTVSWNSGALTSGVHTFPAVLQSSGLYSLSSVVTVPSSSLGTQTYICNVNHKPSNTKVDKKVEPKSCDKTHTCPPCPAPEAAGGPSVFLFPPKPKDTLMISRTPEVTCVVVDVSHEDPEVKFNWYVDGVEVHNAKTKPREEQYGSTYRVVSVLTVLHQDWLNGKEYKCKVSNKALPAPIEKTISKAKGQPREPQVYTLPPSRDELTKNQVSLSCAVKGFYPSDIAVEWESNGQPENNYKTTPPVLDSDGSFFLVSKLTVDKSRWQQGNVFSCSVMHEALHNHYTQKSLSLSPGK
chain 2: EIAMTQSPATLSVSPGERATLSCRASQSVSSNLAWYQQKPGQAPRLLIYGASTRATGLPARFSGSGSGTEFTLTISSLQSEDFAVYYCQQYNNFWTFGQGTKVEIKRTVAAPSVFIFPPSDEQLKSGTASVVCLLNNFYPREAKVQWKVDNALQSGNSQESVTEQDSKDSTYSLSSTLTLSKADYEKHKVYACEVTHQGLSSPVTKSFNRGEC
chain 3: EVQLVESGGGLIQPGGSLRLSCAASGFTFNTYAMNWVRQAPGKGLEWVARIRSKYNNYATKYADSVKDRFTISRDDSKSTLYLQMNNLRAEDTAVYYCVRHGNFGNSYVSWFAYWGQGTLVTVSSGKPGSGKPGSGKPGSGKPGSQAVVTQEPSLTVSPGGTVTLTCRSSTGAVTTSNYANWVQQKPGQAPRGLIGGTNKRAPGTPARFSGSLLGDKAALTLSGAQPEDEAEYYCALWYSNLWVFGGGTKVTVL[human IgG1 Fc with C220S L234A L235A N297G T366W (EU numbers) cut from this listing]
B2: BTE-0023 (bispecific antibody)
chain 1: QVQLVESGGGVVQPGGSLRLSCAASGFTFSSYGMHWVRQAPGKGLEWVAVIWYDGRNKYYADSVKGRFTISRDNSKNTLYLQMNSLRAEDTAVYYCTRDHSGSGSYYIDYWGQGTLVTVSSASTKGPSVFPLAPSSKSTSGGTAALGCLVKDYFPEPVTVSWNSGALTSGVHTFPAVLQSSGLYSLSSVVTVPSSSLGTQTYICNVNHKPSNTKVDKKVEPKSCDKTHTCPPCPAPEAAGGPSVFLFPPKPKDTLMISRTPEVTCVVVDVSHEDPEVKFNWYVDGVEVHNAKTKPREEQYGSTYRVVSVLTVLHQDWLNGKEYKCKVSNKALPAPIEKTISKAKGQPREPQVYTLPPSRDELTKNQVSLSCAVKGFYPSDIAVEWESNGQPENNYKTTPPVLDSDGSFFLVSKLTVDKSRWQQGNVFSCSVMHEALHNHYTQKSLSLSPGK
chain 2: EIAMTQSPATLSVSPGERATLSCRASQSVSSNLAWYQQKPGQAPRLLIYGASTRATGLPARFSGSGSGTEFTLTISSLQSEDFAVYYCQQYNNFWTFGQGTKVEIKRTVAAPSVFIFPPSDEQLKSGTASVVCLLNNFYPREAKVQWKVDNALQSGNSQESVTEQDSKDSTYSLSSTLTLSKADYEKHKVYACEVTHQGLSSPVTKSFNRGEC
chain 3: EVQLVESGGGLIQPGGSLRLSCAASGFTFNTYAMNWVRQAPGKGLEWVARIRSKYNNYATNYADSVKDRFTISRDDSKSTLYLQMNNLRAEDTAVYYCVRHGNFGNSYVSWFAYWGQGTLVTVSSGKPGSGKPGSGKPGSGKPGSQAVVTQEPSLTVSPGGTVTLTCRSSTGAVTTSNYANWVQQKPGQAPRGLIGGTNKRAPGTPARFSGSLLGDKAALTLSGAQPEDEAEYYCALWYSNLWVFGGGTKVTVL[human IgG1 Fc with C220S L234A L235A N297G T366W (EU numbers) cut from this listing]
B3: BTE-0024 (bispecific antibody)
chain 1: QVQLVESGGGVVQPGGSLRLSCAASGFTFSSYGMHWVRQAPGKGLEWVAVIWYDGRNKYYADSVKGRFTISRDNSKNTLYLQMNSLRAEDTAVYYCTRDHSGSGSYYIDYWGQGTLVTVSSASTKGPSVFPLAPSSKSTSGGTAALGCLVKDYFPEPVTVSWNSGALTSGVHTFPAVLQSSGLYSLSSVVTVPSSSLGTQTYICNVNHKPSNTKVDKKVEPKSCDKTHTCPPCPAPEAAGGPSVFLFPPKPKDTLMISRTPEVTCVVVDVSHEDPEVKFNWYVDGVEVHNAKTKPREEQYGSTYRVVSVLTVLHQDWLNGKEYKCKVSNKALPAPIEKTISKAKGQPREPQVYTLPPSRDELTKNQVSLSCAVKGFYPSDIAVEWESNGQPENNYKTTPPVLDSDGSFFLVSKLTVDKSRWQQGNVFSCSVMHEALHNHYTQKSLSLSPGK
chain 2: EIAMTQSPATLSVSPGERATLSCRASQSVSSNLAWYQQKPGQAPRLLIYGASTRATGLPARFSGSGSGTEFTLTISSLQSEDFAVYYCQQYNNFWTFGQGTKVEIKRTVAAPSVFIFPPSDEQLKSGTASVVCLLNNFYPREAKVQWKVDNALQSGNSQESVTEQDSKDSTYSLSSTLTLSKADYEKHKVYACEVTHQGLSSPVTKSFNRGEC
chain 3: EVQLVESGGGLIQPGGSLRLSCAASGFTFNTYAMNWVRQAPGKGLEWVARIRSKYNNYATRYADSVKDRFTISRDDSKSTLYLQMNNLRAEDTAVYYCVRHGNFGNSYVSWFAYWGQGTLVTVSSGKPGSGKPGSGKPGSGKPGSQAVVTQEPSLTVSPGGTVTLTCRSSTGAVTTSNYANWVQQKPGQAPRGLIGGTNKRAPGTPARFSGSLLGDKAALTLSGAQPEDEAEYYCALWYSNLWVFGGGTKVTVL[human IgG1 Fc with C220S L234A L235A N297G T366W (EU numbers) cut from this listing]
B4: BTE-0025 (bispecific antibody)
chain 1: QVQLVESGGGVVQPGGSLRLSCAASGFTFSSYGMHWVRQAPGKGLEWVAVIWYDGRNKYYADSVKGRFTISRDNSKNTLYLQMNSLRAEDTAVYYCTRDHSGSGSYYIDYWGQGTLVTVSSASTKGPSVFPLAPSSKSTSGGTAALGCLVKDYFPEPVTVSWNSGALTSGVHTFPAVLQSSGLYSLSSVVTVPSSSLGTQTYICNVNHKPSNTKVDKKVEPKSCDKTHTCPPCPAPEAAGGPSVFLFPPKPKDTLMISRTPEVTCVVVDVSHEDPEVKFNWYVDGVEVHNAKTKPREEQYGSTYRVVSVLTVLHQDWLNGKEYKCKVSNKALPAPIEKTISKAKGQPREPQVYTLPPSRDELTKNQVSLSCAVKGFYPSDIAVEWESNGQPENNYKTTPPVLDSDGSFFLVSKLTVDKSRWQQGNVFSCSVMHEALHNHYTQKSLSLSPGK
chain 2: EIAMTQSPATLSVSPGERATLSCRASQSVSSNLAWYQQKPGQAPRLLIYGASTRATGLPARFSGSGSGTEFTLTISSLQSEDFAVYYCQQYNNFWTFGQGTKVEIKRTVAAPSVFIFPPSDEQLKSGTASVVCLLNNFYPREAKVQWKVDNALQSGNSQESVTEQDSKDSTYSLSSTLTLSKADYEKHKVYACEVTHQGLSSPVTKSFNRGEC
chain 3: EVQLVESGGGLIQPGGSLRLSCAASGFTFNTYAMNWVRQAPGKGLEWVARIRSKYNNYATSYADSVKDRFTISRDDSKSTLYLQMNNLRAEDTAVYYCVRHGNFGNSYVSWFAYWGQGTLVTVSSGKPGSGKPGSGKPGSGKPGSQAVVTQEPSLTVSPGGTVTLTCRSSTGAVTTSNYANWVQQKPGQAPRGLIGGTNKRAPGTPARFSGSLLGDKAALTLSGAQPEDEAEYYCALWYSNLWVFGGGTKVTVL[human IgG1 Fc with C220S L234A L235A N297G T366W (EU numbers) cut from this listing]

The binders below were run against T1, CD3εδ complex protein (human; alpaca, UniProt P07766 23-126; P04234 22-105) (assay: ELISA, CD3 complex immobilized).
T1 construct: they are not part of the secreted protein; also called human CD3; CD386 complex protein
Method: Binding activities of the anti-TSPAN8/anti-CD3 bispecific antibodies BTE-0001 to BTE-0067 to CD3 were evaluated by the ELISA. ELISA was performed according to a conventional method. The […] complex protein obtained in Example 1-3 was immobilized on a plate. BTE-0001 to BTE-0067 were used as the test antibodies. As a secondary antibody, Goat anti-Human IgG Fc, Multi-Species SP ads-HRP (2014-05, available from SouthernBiotech) was used. TMB+Substrate-Chromogen (S1599, available from Dako) was used as the detection reagent. Infinite M200pro (available from Tecan) was used to measure the absorbance. The EC50 values were calculated using variable slope model (four parameters) in GraphPad Prism with the maximum value in the same plate fixed at the top and the minimum value in the blank in the same plate fixed at the bottom. Since BTE-0001 was always measured in each plate as a control, only the EC50 value of BTE-0001 was expressed as the average value of a plurality of plates.

UniProt P07766, sequence (P07766 23-126 limits assumed, stated change not applied, form in doubt, chain 1 of 2): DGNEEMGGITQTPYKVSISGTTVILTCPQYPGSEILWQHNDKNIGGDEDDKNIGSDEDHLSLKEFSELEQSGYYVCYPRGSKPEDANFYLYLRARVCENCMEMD
UniProt P07766, sequence (P04234 22-105 limits assumed, stated change not applied, form in doubt, chain 2 of 2, further chain): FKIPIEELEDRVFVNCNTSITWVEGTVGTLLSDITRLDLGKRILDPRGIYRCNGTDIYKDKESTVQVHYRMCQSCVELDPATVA

First: B1
Second: B2
The EC50 of the first is 4.5-fold lower: 0.0462 µg/mL for the first, 0.208 µg/mL for the second.

B3 and B4 are within 1.5-fold of each other in EC50: 0.0412 µg/mL for the first, 0.0494 µg/mL for the second.
